Assay results taken from PMC5323044.
Residue numbers refer to the chain shown, from its start. No constants are given. Whether binding was seen depends on the method and setting. For some of these results: In cells and extracts the contact can be indirect. Some binding calls cover weakened binding; strength is not graded here. For some of these results: Tags and fused reporters may be left off the sequences shown. Each block holds one molecule with its values, some of them ahead of it.

Protein sequences, listed by entry. Tags and fused reporters are not part of them. Residues count along the entry.
UniProt O08788: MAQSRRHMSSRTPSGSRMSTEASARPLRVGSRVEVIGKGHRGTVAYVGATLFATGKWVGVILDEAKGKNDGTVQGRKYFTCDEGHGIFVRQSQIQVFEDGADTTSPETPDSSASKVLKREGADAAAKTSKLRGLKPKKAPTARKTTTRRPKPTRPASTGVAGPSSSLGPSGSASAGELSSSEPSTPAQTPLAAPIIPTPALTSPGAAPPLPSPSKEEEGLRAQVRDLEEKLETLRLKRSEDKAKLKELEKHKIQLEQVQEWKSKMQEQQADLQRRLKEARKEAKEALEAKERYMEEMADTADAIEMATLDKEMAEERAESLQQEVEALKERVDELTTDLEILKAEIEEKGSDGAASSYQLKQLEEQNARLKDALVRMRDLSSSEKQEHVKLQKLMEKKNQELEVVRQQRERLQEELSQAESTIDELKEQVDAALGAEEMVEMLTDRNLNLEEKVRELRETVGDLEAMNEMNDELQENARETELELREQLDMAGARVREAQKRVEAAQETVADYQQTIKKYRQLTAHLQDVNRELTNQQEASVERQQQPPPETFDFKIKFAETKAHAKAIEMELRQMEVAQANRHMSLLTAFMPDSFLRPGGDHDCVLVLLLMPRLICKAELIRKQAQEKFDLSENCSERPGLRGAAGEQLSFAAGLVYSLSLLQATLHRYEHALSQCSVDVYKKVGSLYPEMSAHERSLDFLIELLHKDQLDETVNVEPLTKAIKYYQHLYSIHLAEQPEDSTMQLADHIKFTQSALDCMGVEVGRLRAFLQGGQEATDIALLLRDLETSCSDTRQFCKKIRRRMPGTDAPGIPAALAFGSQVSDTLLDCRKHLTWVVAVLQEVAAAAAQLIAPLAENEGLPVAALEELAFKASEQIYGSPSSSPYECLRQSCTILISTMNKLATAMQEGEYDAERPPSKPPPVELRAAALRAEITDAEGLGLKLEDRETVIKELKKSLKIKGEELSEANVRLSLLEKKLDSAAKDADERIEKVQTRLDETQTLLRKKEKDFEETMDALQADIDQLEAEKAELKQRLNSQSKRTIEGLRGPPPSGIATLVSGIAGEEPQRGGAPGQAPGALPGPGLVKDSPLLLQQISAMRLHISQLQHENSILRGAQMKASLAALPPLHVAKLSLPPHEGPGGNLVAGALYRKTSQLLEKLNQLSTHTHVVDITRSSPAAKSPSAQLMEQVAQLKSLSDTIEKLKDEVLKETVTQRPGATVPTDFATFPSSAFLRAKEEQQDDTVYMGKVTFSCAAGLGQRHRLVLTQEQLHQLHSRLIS
UniProt Q01097, residues 27-1482: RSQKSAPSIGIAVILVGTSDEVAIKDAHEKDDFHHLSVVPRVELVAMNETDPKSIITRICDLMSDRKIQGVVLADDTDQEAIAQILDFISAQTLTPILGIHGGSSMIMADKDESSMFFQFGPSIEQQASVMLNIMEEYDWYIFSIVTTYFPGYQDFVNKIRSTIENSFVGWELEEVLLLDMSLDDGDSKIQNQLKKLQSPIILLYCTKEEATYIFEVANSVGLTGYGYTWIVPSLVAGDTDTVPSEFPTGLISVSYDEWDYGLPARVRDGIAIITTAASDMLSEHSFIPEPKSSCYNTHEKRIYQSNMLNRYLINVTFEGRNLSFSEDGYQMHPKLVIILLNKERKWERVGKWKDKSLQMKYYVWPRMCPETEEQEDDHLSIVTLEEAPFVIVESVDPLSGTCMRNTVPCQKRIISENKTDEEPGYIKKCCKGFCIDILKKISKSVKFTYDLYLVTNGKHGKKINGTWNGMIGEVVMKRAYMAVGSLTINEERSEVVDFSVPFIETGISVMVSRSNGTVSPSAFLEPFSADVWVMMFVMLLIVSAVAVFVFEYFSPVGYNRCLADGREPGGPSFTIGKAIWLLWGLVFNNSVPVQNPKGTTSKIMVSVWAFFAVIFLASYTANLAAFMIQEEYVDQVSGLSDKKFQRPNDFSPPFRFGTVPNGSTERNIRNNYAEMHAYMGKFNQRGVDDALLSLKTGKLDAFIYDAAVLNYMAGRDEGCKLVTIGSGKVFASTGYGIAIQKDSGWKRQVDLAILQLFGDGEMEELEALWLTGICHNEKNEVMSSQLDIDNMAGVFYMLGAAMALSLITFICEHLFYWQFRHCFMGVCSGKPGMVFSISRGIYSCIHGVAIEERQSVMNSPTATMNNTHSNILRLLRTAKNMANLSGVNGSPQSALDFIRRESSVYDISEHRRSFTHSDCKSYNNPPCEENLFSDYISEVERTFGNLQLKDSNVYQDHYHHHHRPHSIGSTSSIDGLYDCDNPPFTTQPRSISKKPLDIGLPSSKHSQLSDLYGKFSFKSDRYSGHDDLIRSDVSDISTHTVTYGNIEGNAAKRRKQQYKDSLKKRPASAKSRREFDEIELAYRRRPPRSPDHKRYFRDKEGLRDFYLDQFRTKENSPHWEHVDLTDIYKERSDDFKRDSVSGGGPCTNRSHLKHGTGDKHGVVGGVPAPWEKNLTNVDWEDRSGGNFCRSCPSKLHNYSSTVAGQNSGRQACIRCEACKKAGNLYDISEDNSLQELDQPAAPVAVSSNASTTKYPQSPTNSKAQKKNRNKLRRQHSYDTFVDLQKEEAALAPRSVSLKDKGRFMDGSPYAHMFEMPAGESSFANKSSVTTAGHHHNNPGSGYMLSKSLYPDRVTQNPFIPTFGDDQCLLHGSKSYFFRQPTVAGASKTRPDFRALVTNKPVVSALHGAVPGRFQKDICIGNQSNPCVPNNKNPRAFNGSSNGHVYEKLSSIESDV

Legend:
[1] = target: T1, SNX6 (endogenous, mouse brain) (mouse (endogenous in brain)) (UniProt Q6P8X1); assay: immunoisolation of vesicles (membrane IP); membrane fraction (p100) of mouse brain lysate, buffer without detergent (0.25 M sucrose, 150 mM NaCl); mouse anti-SNX6 antibody coupled to Dynabeads Protein G; immunoblotting
T1 sequence: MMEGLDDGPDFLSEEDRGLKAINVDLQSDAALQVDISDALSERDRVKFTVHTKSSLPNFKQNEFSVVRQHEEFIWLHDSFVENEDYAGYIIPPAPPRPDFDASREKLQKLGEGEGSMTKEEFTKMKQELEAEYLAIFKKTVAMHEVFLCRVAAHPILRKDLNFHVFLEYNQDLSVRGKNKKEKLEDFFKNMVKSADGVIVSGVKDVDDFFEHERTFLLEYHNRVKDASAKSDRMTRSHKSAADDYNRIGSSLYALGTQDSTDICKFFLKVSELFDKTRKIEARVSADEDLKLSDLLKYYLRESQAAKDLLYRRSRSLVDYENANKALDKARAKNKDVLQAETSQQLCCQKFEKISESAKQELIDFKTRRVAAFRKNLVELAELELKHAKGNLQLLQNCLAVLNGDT

[2] = target: T2, GST-SNX6-N (aa 1-181) (UniProt Q9UNH7); assay: pull-down; in vitro binding assay: 2 μg of recombinant His-sumo-Homer protein incubated with GST, GST-SNX1-N or GST-SNX6-N immobilized on glutathione-Sepharose beads overnight at 4°C; immunoblotting; both purified
T2 sequence: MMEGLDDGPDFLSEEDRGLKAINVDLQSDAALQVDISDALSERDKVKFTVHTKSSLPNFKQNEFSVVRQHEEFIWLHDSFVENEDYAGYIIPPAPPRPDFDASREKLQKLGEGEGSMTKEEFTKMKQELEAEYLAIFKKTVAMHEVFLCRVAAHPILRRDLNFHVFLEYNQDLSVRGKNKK

[3] = target: T3, Flag-tagged SNX6 (full length) (UniProt Q9UNH7); assay: co-IP; lysates of HEK293T cells overexpressing Flag-SNX6 and mEmerald-Homer1c (0.5% NP-40, 150 mM NaCl); IP with Flag M2 beads, blots with antibodies to Flag and Homer1b/c
T3 sequence: T1 sequence with R45K, K159R

binding [1]: binds
Molecule: p150^Glued (endogenous, mouse brain) (from UniProt O08788 1-1281)

binding [1]: no binding
Molecule: GluN2B subunit of NMDAR (endogenous, mouse brain) (from UniProt Q01097 27-1482) (receptor)

binding [1]: no binding
Molecule: GluN2A subunit of NMDAR (endogenous, mouse brain) (from UniProt P35436 23-1464) (receptor)

binding [2]: no binding (tested: 2 μg of protein)
B1: His-sumo-Homer3 (protein, UniProt Q99JP6-2 1-359)
chain: MSTAREQPIFSTRAHVFQIDPTTKRNWIPAGKHALTVSYFYDATRNVYRIISIGGAKAIINSTVTPNMTFTKTSQKFGQWADSRANTVYGLGFASEQQLTQFAEKFQEVKEAARLAREKSQDGGEFTSTGLALASHQVPPSPLVSTNGPGEEKLFRSQSADTPGPTERERLKKMLSEGSVGEVQWEAEFFALQDSNQRLAGALREANAAATQWRQQLEVQRAEAELLRQRVAELEAQVAVEPVRAGEKEATSQSVEQLEARVQTKDQEIQTLKNQSTGTREAPDTAEREETQQQVQDLETRNAELEQQLRSMECNLEEARAERERARAEVGRAAQLLDVRLFELSELREGLARLAEAAP

binding [2]: binds
B2: His-sumo-Homer1c-FL (protein, UniProt Q9Z2Y3 1-366)
chain: MGEQPIFSTRAHVFQIDPNTKKNWVPTSKHAVTVSYFYDSTRNVYRIISLDGSKAIINSTITPNMTFTKTSQKFGQWADSRANTVYGLGFSSEHHLSKFAEKFQEFKEAARLAKEKSQEKMELTSTPSQESAGGDLQSPLTPESINGTDDERTPDVTQNSEPRAEPTQNALPFPHSAGDRTQALSHASSAISKHWEAELATLKGNNAKLTAALLESTANVKQWKQQLAAYQEEAERLHKRVTELECVSSQANAVHSHKTELNQTVQELEETLKVKEEEIERLKQEIDNARELQEQRDSLTQKLQEVEIRNKDLEGQLSDLEQRLEKSQNEQEAFRSNLKTLLEILDGKIFELTELRDNLAKLLECS

binding [3]: binds
B3: mEmerald-Homer1c (protein, UniProt Q9Z2Y3 1-366)
chain: B2 chain

binding [2]: no binding (tested: 2 μg of protein)
B4: His-sumo-Homer2b (protein, UniProt Q9QWW1 1-354)
chain: MGEQPIFTTRAHVFQIDPSTKKNWVPASKQAVTVSYFYDVTRNSYRIISVDGAKVIINSTITPNMTFTKTSQKFGQWADSRANTVFGLGFSSELQLTKFAEKFQEVREAARLARDKSQEKTETSSNHSQESGCETPSSTQASSVNGTDDEKASHASPADTHLKSENDKLKIALTQSAANVKKWEMELQTLRESNARLTTALQESAASVEQWKRQFSICRDENDRLRSKIEELEEQCSEINREKEKNTQLKRRIEELESEVRDKEMELKDLRKQSEIIPQLMSECEYVSEKLEAAERDNQNLEDKVRSLKTDIEESKYRQRHLKGELKSFLEVLDGKIDDLHDFRRGLSKLGTDN
